Consider 14 compounds from ChEMBL document CHEMBL1961873, “Compounds: GSK PKIS; Assays: Nanosyn kinase panel” (2012).

For some of these results: Shown are results outside the selection of strong results, which stands elsewhere. The entries are a selection whose mix differs from that of the whole data set.

In test [1] the target is Homeodomain-interacting protein kinase 1 (Homo sapiens) (UniProt Q86Z02). Particulars: at 0.1 µM.
Test [2] shares this target. The settings on record: at 1 µM.
The target in test [3] is T1, Homeodomain-interacting protein kinase 4 (Homo sapiens) (UniProt Q8NE63).
T1 sequence (whole entry): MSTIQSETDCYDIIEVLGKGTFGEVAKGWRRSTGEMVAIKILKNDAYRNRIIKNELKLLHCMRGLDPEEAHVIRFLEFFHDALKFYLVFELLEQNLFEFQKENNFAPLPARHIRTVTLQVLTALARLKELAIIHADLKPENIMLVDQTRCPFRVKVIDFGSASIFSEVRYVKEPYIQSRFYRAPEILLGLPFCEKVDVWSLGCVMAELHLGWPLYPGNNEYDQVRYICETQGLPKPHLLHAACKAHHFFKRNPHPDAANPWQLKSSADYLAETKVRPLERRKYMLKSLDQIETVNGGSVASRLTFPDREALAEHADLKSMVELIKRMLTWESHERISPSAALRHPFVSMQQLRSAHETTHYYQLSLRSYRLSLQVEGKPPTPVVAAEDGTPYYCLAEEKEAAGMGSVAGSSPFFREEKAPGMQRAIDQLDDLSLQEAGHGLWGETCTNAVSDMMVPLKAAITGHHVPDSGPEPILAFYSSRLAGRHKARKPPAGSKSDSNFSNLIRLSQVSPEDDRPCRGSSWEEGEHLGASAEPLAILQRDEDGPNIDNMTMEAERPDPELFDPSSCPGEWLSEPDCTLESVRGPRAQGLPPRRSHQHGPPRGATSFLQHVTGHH
Particulars: at 0.1 µM.

The target of test [4] is T1, Homeodomain-interacting protein kinase 4 (Homo sapiens). Particulars: at 1 µM.
For test [5], the target named is Mitogen-activated protein kinase 9 (Homo sapiens) (UniProt P45984). The settings on record: at 0.1 µM.
For test [6] the target is unchanged. The settings on record: at 1 µM.
Test [7] concerns the target Mitogen-activated protein kinase 1 (Homo sapiens) (UniProt P28482). Particulars: at 0.1 µM.
For test [8] the target is unchanged. The settings on record: at 1 µM.
Test [9] has as its target Mitogen-activated protein kinase 3 (Homo sapiens) (UniProt P27361). The settings on record: at 0.1 µM.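 Further: each value is a mean inhibition figure.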
Test [10] has as its target Glycogen synthase kinase-3 beta (Homo sapiens) (UniProt P49841). Particulars: at 1 µM.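 Further: reported values are mean percent inhibition of GSK3B.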
Sequence of UniProt P49841 (P49841 whole entry, looked up): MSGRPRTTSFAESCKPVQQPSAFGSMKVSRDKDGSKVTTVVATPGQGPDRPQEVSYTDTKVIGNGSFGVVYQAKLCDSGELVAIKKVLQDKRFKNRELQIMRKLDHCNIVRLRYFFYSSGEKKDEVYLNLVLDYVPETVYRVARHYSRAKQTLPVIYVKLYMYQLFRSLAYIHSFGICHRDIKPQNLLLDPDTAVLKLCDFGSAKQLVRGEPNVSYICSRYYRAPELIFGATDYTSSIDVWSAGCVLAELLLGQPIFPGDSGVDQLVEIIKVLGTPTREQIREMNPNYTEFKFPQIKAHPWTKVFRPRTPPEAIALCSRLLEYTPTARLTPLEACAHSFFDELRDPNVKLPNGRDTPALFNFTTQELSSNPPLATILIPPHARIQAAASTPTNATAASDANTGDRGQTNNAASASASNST

Sequence of UniProt Q86Z02 (Q86Z02 whole entry, looked up): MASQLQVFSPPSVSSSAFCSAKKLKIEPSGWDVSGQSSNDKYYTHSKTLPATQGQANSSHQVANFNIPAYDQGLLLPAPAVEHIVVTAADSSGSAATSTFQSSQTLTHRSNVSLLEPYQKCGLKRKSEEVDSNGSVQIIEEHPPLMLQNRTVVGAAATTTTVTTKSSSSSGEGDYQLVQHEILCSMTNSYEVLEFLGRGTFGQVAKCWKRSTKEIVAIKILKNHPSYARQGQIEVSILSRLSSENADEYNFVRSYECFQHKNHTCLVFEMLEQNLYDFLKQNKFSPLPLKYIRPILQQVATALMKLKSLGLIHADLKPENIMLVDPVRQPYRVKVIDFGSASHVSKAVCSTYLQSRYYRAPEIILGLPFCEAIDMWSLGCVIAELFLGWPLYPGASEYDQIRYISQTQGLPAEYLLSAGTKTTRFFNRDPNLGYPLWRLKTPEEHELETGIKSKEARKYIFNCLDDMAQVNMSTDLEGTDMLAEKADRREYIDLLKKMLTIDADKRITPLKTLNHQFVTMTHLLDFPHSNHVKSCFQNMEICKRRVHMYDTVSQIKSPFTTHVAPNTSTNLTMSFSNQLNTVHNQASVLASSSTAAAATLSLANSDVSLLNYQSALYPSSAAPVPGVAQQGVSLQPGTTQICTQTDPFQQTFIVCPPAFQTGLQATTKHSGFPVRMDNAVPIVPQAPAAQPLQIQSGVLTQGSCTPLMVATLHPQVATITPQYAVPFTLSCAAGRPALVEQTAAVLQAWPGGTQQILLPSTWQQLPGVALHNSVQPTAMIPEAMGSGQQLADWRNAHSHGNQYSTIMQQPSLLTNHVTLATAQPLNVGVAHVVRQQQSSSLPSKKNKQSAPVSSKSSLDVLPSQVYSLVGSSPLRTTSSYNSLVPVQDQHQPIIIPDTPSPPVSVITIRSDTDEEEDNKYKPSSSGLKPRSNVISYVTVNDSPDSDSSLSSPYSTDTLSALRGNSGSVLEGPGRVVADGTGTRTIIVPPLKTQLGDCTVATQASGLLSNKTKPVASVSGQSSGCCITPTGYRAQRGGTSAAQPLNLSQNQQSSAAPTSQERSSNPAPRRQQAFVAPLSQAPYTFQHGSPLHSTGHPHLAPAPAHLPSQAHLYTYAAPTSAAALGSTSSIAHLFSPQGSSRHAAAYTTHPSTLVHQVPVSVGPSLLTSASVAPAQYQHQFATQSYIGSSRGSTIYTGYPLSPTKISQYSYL
Sequence of UniProt P28482 (P28482 whole entry): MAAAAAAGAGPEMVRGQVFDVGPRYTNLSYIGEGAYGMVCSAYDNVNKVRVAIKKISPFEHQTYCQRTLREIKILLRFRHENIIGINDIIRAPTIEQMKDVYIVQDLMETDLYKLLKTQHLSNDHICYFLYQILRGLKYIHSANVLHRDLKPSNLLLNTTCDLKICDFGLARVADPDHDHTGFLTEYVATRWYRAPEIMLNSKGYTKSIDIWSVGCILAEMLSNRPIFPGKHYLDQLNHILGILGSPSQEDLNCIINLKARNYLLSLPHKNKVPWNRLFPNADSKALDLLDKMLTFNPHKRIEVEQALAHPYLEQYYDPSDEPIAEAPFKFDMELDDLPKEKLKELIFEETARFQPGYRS
Sequence of UniProt P27361 (P27361 whole entry): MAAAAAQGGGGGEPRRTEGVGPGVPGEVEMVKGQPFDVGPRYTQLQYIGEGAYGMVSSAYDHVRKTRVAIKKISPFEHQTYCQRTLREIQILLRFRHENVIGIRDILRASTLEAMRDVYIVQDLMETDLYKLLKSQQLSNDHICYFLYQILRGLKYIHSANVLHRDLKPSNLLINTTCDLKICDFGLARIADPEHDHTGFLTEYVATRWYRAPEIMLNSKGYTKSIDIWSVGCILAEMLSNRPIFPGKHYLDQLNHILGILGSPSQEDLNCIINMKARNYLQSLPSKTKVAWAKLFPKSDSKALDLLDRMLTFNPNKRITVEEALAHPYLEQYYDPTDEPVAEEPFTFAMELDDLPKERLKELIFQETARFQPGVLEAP
Sequence of UniProt P45984 (P45984 whole entry, looked up): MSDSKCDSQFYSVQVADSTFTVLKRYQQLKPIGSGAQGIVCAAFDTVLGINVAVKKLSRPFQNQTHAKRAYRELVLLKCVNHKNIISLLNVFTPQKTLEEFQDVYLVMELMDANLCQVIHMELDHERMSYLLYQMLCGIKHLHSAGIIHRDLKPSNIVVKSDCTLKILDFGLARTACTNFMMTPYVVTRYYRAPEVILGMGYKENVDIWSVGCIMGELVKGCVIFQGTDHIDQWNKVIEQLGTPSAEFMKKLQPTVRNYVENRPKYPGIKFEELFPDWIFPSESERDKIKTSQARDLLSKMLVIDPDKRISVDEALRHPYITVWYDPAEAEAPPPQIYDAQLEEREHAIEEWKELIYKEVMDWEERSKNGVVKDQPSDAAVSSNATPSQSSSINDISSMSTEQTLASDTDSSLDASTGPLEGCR

By inhibition is commonly meant the relative decrease from the control value, in per cent. Turning to `O=C1NC(=O)C(c2ccccc2Cl)=C1Nc1cc(Cl)c(O)c(Cl)c1`, the inhibition in test [1] turned out to be 3.16%; in [2], 6.06%; in test [3], 2.48%; in test [4], 6.53%; in test [5], 0.6%; in [6], 2.28%. Also, the results for the inhibition in [7], in test [8] and in test [9] were 5.19%, 3.9% and 1.83%, respectively.

`O=C1NC(=O)C(c2ccccc2)=C1Nc1ccccc1`: the inhibition came out at 2.23% in test [1]; 6.04% in test [2]; 2.95% in test [3]; 5.33% in [4]; 4.39% in test [5]; 5.97% in [6]. Moreover, the inhibition in test [7] was 6.12%; in [8], 5.98%; in test [9], 3.91%.

With `O=C1NC(=O)C(c2cccc([N+](=O)[O-])c2)=C1Nc1cc(Cl)c(O)c(Cl)c1`, the inhibition in test [1] was -2.9%; in test [2], -1.52%; in test [3] it was -0.03%; in [4], 1.09%; in [5], 1.59%; in test [6], 1.1%. The inhibition in [7] amounted to 2.88%; in test [8], 4.35%; in test [9], 3.14%.

Turning to `Fc1ccc(Oc2nccc(-c3c(-c4ccc(F)cc4)ncn3C3CCNCC3)n2)cc1`, the inhibition was -1.66% in test [10]; -3.81% in [1]; -2.21% in test [2]; 0.54% in [3]; 2.88% in test [4]; 3.21% in test [5]. Besides, the inhibition in test [6] was found to be 6.96%; in [7], 5.33%; in test [8], 7.56%; in [9] it was 4.57%.

As to `COc1ccccc1C1=C(Nc2ccccc2)C(=O)NC1=O`, the inhibition turned out to be 0.32% in test [1]; 0.24% in test [2]; 3.56% in test [3]; 9.56% in test [4]; 3.16% in test [5]; 4.12% in [6]. The results for the inhibition in [7], in test [8] and in test [9] were 3.45%, 5.04% and 3.98%, respectively.

As for `Fc1ccc(-c2ncn(C3CCNCC3)c2-c2ccnc(Oc3cccc(C(F)(F)F)c3)n2)cc1`, the inhibition in test [10] is 2.16%; in test [1] it was -4.44%; in test [2] it was -0.28%; in test [3], 0.22%; in [4], 0.14%; in test [5], 5.18%. Further, the inhibition in test [6] amounted to 5.84%; in test [7], 8.02%; in test [8], 8.71%; in test [9], 5.68%.

In the case of `Fc1ccc(-c2ncn(C3CCNCC3)c2-c2ccnc(Oc3cccc(F)c3)n2)cc1`, the inhibition in test [10] was 3.91%; in test [1], -0.06%; in test [2] it was 3.58%; in test [3], 0.18%; in test [4], 5.01%; in test [5] it was 5.15%. Further, the inhibition in test [6] is 13.1%; in test [7], 6.08%; in [8], 7.34%; in test [9], 4.87%.

For `CS(=O)(=O)c1ccc(Oc2nccc(-c3c(-c4ccc(F)cc4)ncn3C3CCNCC3)n2)cc1`, the inhibition in test [10] was 2.96%; in test [1] it was -3.8%; in [2], -2.68%; in [3], -0.65%; in test [4], -1.26%; in test [5] it was 4.02%. The inhibition turned out to be 4.41% in [6], 6.86% in [7], 5.35% in [8] and 3.8% in test [9].

Turning to `CC(C)(C)c1ccc(Oc2nccc(-c3c(-c4ccc(F)cc4)ncn3C3CCNCC3)n2)cc1`, the inhibition in test [10] is 4.99%; in test [1], -3.61%; in test [2], -3.29%; in test [3], -0.41%; in test [4], 0.77%; in test [5], 4.4%. Further, the inhibition in test [6] amounted to 10.4%; in test [7] it was 6.17%; in test [8] it was 15.8%; in [9], 3.81%.

For the compound `COc1ccccc1Oc1nccc(-c2c(-c3ccc(F)cc3)ncn2C2CCNCC2)n1`, the inhibition is 7.45% in test [10]; -1.71% in test [1]; 1.77% in [2]; -0.33% in test [3]; 1.1% in [4]; 5.21% in test [5]. The inhibition in test [6] came out at 5.77%; in test [7] it was 6.2%; in test [8] it was 6.59%; in test [9] it was 5.94%.

As for `Fc1ccc(-c2ncn(C3CCNCC3)c2-c2ccnc(Oc3ccc(Cl)cc3)n2)cc1`, the inhibition in [10] was 1.86%; in test [1] it was -3.97%; in test [2], -1.71%; in test [3], -0.75%; in test [4], 0.62%; in test [5], 1.5%. In addition, the inhibition in test [6] was 6.17%; in [7], 1.85%; in test [8] it was 3.48%; in test [9], 0.56%.

`Cc1cccc(Oc2nccc(-c3c(-c4ccc(F)cc4)ncn3C3CCNCC3)n2)c1C`: the inhibition was 4.28% in test [10]; -2.37% in test [1]; 1.9% in test [2]; -0.2% in test [3]; 0.42% in test [4]; 3.91% in test [5]. Moreover, the inhibition in test [6] amounted to 11.8%; in test [7], 5.62%; in test [8], 7.49%; in [9], 3.56%.

`O=C(O)c1ccc(Oc2nccc(-c3c(-c4ccc(F)cc4)ncn3C3CCNCC3)n2)cc1`: the inhibition in test [10] was 1.41%; in [1], -0.41%; in test [2], 3.85%; in test [3], 1.02%; in test [4], 2.18%; in test [5], 3.63%. Moreover, the inhibition in [6] is 7.23%; in [7] it was 6.73%; in test [8], 7%; in test [9] it was 3.47%.

With `NC(=O)CCc1ccccc1Oc1nccc(-c2c(-c3ccc(F)cc3)ncn2C2CCNCC2)n1`, the inhibition in test [10] was -0.49%; in [1], -4.09%; in test [2] it was -2.28%; in test [3] it was -0.69%; in [4], 0.56%; in test [5] it was -5.14%. Further, the inhibition in test [6] is 1.48%; in test [7], -2.29%; in [8], -2.2%; in test [9], 0.76%.
